Experimental data from ChEMBL document CHEMBL4888484, “Replenishing the malaria drug discovery pipeline: Screening and hit evaluation of the MMV Hit Generation Library 1 (HGL1) against asexual blood stage Plasmodium falciparum ,using a nano luciferase reporter read-out” (2022).
Screen size: about 150,000 compounds; about 540 (0.36%) showed an effect of 50% or more. This is one part of the list.

tested on: Plasmodium falciparum; test: Primary screen in NF54 nanoGlo assay, in single point, at 2uM, 72h; a lower Z score goes with more inhibition; type: functional, Erythrocyte; details: timepoint 72 hour

Compound	% Inhibition [%]	Z score
COc1ccc([C@H]2CN(C)C[C@@H]2NS(=O)(=O)N2CCCCC2)cc1	-4	0.85
O=C(N[C@@H]1CCCC[C@H]1NC(=O)C1CCN(C(=O)Cc2cccs2)CC1)c1ccccc1	-7	0.74
Cc1cc(C(=O)Cn2cc(Cl)c(=O)[nH]c2=O)c(Cl)cc1F	-1	0.1
N#C[C@@H](C(=O)NCc1ccc(OCc2cccnc2)cc1)c1nc2cc(F)ccc2s1	-2	0.25
CCOc1ccc(C(=O)N[C@H]2C[C@H](c3nnc(CO)n3CC)C2)o1	-17	2.66
Cc1cc(C)n(-c2nnc(Nc3ccc(F)cc3C)c3ccccc23)n1	10	-1.94
CCc1nccn1CCN1CCn2nc(CO)cc2C1	-25	2.57
COc1ccccc1OC(C)(C)C(=O)NCc1ncc[nH]1	2	-0.26
Cc1cc(C(=O)N2CCOCC2)nn1CC(=O)N1CCCc2ccccc21	-6	0.79
Cc1cccc(OC2CN(C[C@H](O)C3CC3)C2)c1	3	-0.61
c1cc2[nH]nnc2cc1NC1CCC2(CC1)CC2	-5	0.94
CCOc1cc(CN[C@@H](C)c2ncn[nH]2)c(Cl)cc1OC(C)C	-7	0.98
Cc1nc(-n2nnc(C(=O)NCc3ccc4c(c3)OCO4)c2C)sc1C	-15	2.87
Cc1cc(N2CCN(c3nnc(C)c(C)c3C(N)=O)CC2)ncn1	-7	1.17
COc1ccccc1S(=O)(=O)N(Cc1cccnc1)C1CC1	-1	0.1
CCOC[C@H]1CCC2(CCN(S(=O)(=O)c3cc(F)cc(F)c3)CC2)O1	1	-0.24
Cc1cc(-c2ccccc2)nc(Nc2nc(-c3ccccc3)c(CC(=O)O)s2)n1	1	-0.08
CC(C)(C)OC(=O)NCC(C)(C)c1nc(-c2ccncc2)no1	12	-1.61
CN1CCN([C@H]2COC[C@@H]2NC(=O)[C@H]2CC[C@@H](O)CC2)CC1	-10	1.22
CC(C)CCNC(=O)C(=Cc1ccccc1OCC#N)C(=O)NCCC(C)C	1	-0.18
O=C(CC1Cc2ccccc2C1)NCCc1noc([C@@H]2CCCO2)n1	-3	0.63
CC(NCCOc1cccc(C#N)c1)C1CCCOC1 (stereo unspecified)	-11	1.22
CCNC(=O)c1cc(NS(=O)(=O)c2ccc(C(C)C)cc2)cnc1N1CCNCC1	3	-0.45
Cc1ccc(-c2ocnc2C(=O)Nc2ccc(F)cc2F)s1	0	0.05
COc1cc(NC(=O)CCc2c(-c3ccc(F)cc3)nc3ccccn23)cc(OC)c1	-1	0.08
N#CC1(C(=O)NCC2(O)CCCCCC2)CCCCC1	5	-0.86
Cc1cccc(-n2ncnc2C[C@H](C)n2cccn2)n1	-18	1.9

Compound	% Inhibition [%]	Z score
O=C1CCCCN1Cc1nc(Cc2ccc(F)c(Br)c2)no1	-9	1.81
CCCS(=O)(=O)N1CC(=O)N(c2cc(C)cc(C)c2)[C@](C)(C(=O)NC2CCCCCC2)C1	-4	0.5
CC[C@](O)(CCCO)CNC(=O)c1nc(C)c[nH]1	-2	0.49
COc1cc(C(=O)N(C)Cc2ccnc(C)c2)ccn1	-8	1.45
O=c1ccn(Cc2nc3ccccc3o2)c2ccsc12	2	-0.21
CCOc1ccc(CNC(=O)c2ccc3c(c2)N(S(C)(=O)=O)CC3)cc1OC	-6	0.73
CC(=O)N[C@H]1C[C@@H](c2c(C)nn(-c3ccccc3)c2C)O[C@@H](C(C)(C)C)C1	-11	1.4
Cc1ccc2ccccc2c1NC(=O)N[C@@]1(C)CCOC1	-10	1.97
C[n+]1ccccc1/C=C/c1c[nH]c2ccccc12	91	-8.06
O=C(OC1(C2CC2)CC1)c1coc(-c2ccccc2)n1	-4	0.59
Cc1ncc(NC(=O)N2CCC3CCC(C2)S3(=O)=O)c(C2CC2)n1 (stereo unspecified)	-9	1.56
O=C(NCCOc1ccccc1)c1cc2n(n1)CCN(Cc1ccc(Cl)cc1)C2=O	2	-0.24
O=C(c1cccc(NS(=O)(=O)c2cc(Cl)ccc2Cl)c1)N1CCC=C(F)C1	6	-0.72
COc1ccc(-c2cnccc2N)c(-n2nc(C)cc2C)c1	0	0.04
Cc1ccccc1-c1nc2[nH]c(CN3CCOCC3)cc(=O)n2n1	-1	0.1
CN1CCCN(Cc2noc(C3CC3)n2)c2cc(F)ccc21	-3	0.45
Cc1ccc2c(c1)CN(Cc1cccc(O)c1)C[C@@H](c1ccsc1)O2	8	-1.16
Cc1ccc(-c2csc(NC(=O)[C@@H](c3ccccc3)N3CCC(C)CC3)n2)cc1	-14	2.61
CCCN(C(=O)c1cc2c(=O)n(C)c3ccccc3n2n1)c1cccc(C)c1	-15	1.82
O=C(NC1CCCCC1)c1ccc(N2C(=O)CCS2(=O)=O)cc1Cl	-11	1.41
CC1(C)CN(C[C@H](O)COCc2ccccc2)CCCO1	-6	0.72
COc1ccccc1CC(=O)NCC1CCOCC1	0	0.03
COc1ccc(-c2nn(-c3cc(C)ccc3C)c(OC(C)=O)c2-c2ccc(NC(=O)c3ccccc3)cc2)cc1	0	-0.06
Cc1cc(=O)c(C(=O)N2CCOc3ccccc3[C@@H]2C)c[nH]1	-2	0.3
CO[C@H]1COC[C@H]1S(=O)(=O)NCc1cccc2nsnc12	-4	0.52
O=C(NCCCN1CCOCC1)c1c2c(nc3ccccc13)C(=O)N(C1CCCCC1)C2	-17	1.84
